Measurements: PubChem BioAssay AID1768 (National Center for Advancing Translational Sciences (NCATS), 2009)
Out of some 270,000 compounds screened, about 620 (0.23%) were called active. This list was built around the results that the source calls inconclusive (neither active nor inactive); the mix of calls is not that of the screen. Calls follow the shape of the dose curve; as a rule, active = well fitted inhibition curve with a large enough effect in the polarisation, with a control signal flat (not every such curve was filed as active); inconclusive = small, poorly fitted or top-dose-only effect, or effect the other way, or a change in a side signal; inactive = no such curve, though single readings can be large or run the other way; the % refers to the polarisation. A potency beside an inconclusive call is a rough fit, not a confirmed value. “Side channel” marks fits to a control or component signal instead of the main read-out.

Target: Menin (Homo sapiens) (UniProt O00255)
Assay: qHTS Assay for Inhibitors Targeting the Menin-MLL Interaction in MLL Related Leukemias: Competition With Texas Red Labeled MLL-derived Mutant Peptide
Settings: fluorescence polarization; series mostly up to 61.6 µM
Potency is read from the fitted curve at half-maximal effect; tags tell the direction and shape of the fitted curve or compound fluorescence and quenching.

UniProt O00255, sequence (O00255 whole entry, looked up): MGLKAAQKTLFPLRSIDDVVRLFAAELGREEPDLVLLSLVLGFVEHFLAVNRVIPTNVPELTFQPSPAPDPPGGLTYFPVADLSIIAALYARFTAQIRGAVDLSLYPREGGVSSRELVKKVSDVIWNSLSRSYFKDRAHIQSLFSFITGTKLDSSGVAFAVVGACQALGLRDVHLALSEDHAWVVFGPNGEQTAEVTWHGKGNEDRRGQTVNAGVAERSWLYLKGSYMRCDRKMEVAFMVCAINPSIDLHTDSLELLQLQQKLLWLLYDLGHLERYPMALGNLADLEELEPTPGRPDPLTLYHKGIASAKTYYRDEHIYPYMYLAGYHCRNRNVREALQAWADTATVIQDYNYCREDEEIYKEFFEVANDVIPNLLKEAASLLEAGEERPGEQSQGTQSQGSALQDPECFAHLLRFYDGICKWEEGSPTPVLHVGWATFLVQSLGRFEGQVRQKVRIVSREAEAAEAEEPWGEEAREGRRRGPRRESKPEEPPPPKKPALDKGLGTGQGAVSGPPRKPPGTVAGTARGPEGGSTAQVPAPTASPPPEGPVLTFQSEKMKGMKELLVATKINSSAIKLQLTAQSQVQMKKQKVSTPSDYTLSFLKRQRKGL

| Compound | Potency |
| --- | --- |
| O=C(/C=C/c1ccc(Cl)cc1Cl)Nc1ccc(CN2CCOCC2)cc1 | inconclusive: 25.1 µM [quencher, side channel, single point] |
| CC(C)CCOC(=O)C[N+](C)(C)CCOC1CC2CCC1(C)C2(C)C (stereo not given) | inconclusive: 3.98 µM [fluorescent, side channel, partial curve] |
| CN(C(=S)SCc1ccccc1)C1CCS(=O)(=O)C1 (stereo not given) | inconclusive: 25.1 µM [inhibitor, partial curve] |
| CC1CCCN(c2nc3nonc3nc2Nc2ccccc2F)C1 (stereo not given) | inactive |
| COc1ccc(NC(=O)Cn2nnc(C(=O)NCc3ccc(C)cc3)c2N)cc1Cl | inconclusive: 39.8 µM [fluorescent, side channel, single point] |
| Cc1ccc(N2C(=O)CC(N(CCc3ccccc3)C(=S)Nc3ccc(N(C)C)cc3)C2=O)cc1 (stereo not given) | inconclusive: 3.16 µM [quencher, side channel, full curve] |
| CCOC(=O)C1=C(CSc2nc(-c3ccccc3)ccc2C#N)OC(N)=C(C#N)C1c1ccc(OC)cc1 (stereo not given) | active: 14.1 µM |
| CCOc1ccc(OCC(=O)Nc2ccc(S(N)(=O)=O)cc2)cc1 | inconclusive: 17.8 µM [inhibitor, partial curve] |
| CC1CCN(C(=O)c2ccc3c(c2NCCO)C(=O)c2ccccc2C3=O)CC1 | inconclusive: 25.1 µM [inhibitor, partial curve] |
| CSc1nsc(SC)c1NC(=O)Nc1ccccn1 | inconclusive: 7.08 µM [inhibitor, full curve, poor fit] |
| CCCC(=O)c1ccc(N2CCN(C(=O)c3ccccc3Br)CC2)c(F)c1 | inconclusive: 8.91 µM [inhibitor, single point] |
| CC(=O)Nc1ccc(C2=NN(c3ccccc3)C(c3cccs3)C2)cc1 (stereo not given) | inconclusive: 10 µM [quencher, side channel, partial curve] |
| CC[C@H](C)[C@H](NC(=O)[C@H](C)NC(=O)CNC(=O)[C@H](CCCCN)NC(=O)[C@H](CC(N)=O)NC(=O)[C@H](CO)NC(=O)CN)C(=O)N[C@H](C(=O)NCC(=O)N[C@@H](CC(C)C)C(=O)N[C@@H](CCSC)C(=O)O)[C@@H](C)CC | inactive |
| C/C(=N\NC(=O)c1cccc(N/N=C(\C)c2ccco2)c1)c1ccco1 | inconclusive: 28.2 µM [quencher, side channel, partial curve] |
| COc1cccc(CC2(CO)CCCN(Cc3cn[nH]c3-c3ccccc3)C2)c1 (stereo not given) | inconclusive: 39.8 µM [inhibitor, single point] |
| CC(C)c1ccc2c(c1)CC[C@@H]1[C@@](C)(CN)CCC[C@]21C | inactive |
| CCN(CC)c1ccc(C(=O)Nc2ccccc2)cc1[N+](=O)[O-] | inconclusive: 14.1 µM [quencher, side channel, partial curve] |
| O=C(COC(=O)CCC1CCCC1)Nc1nc2c(F)c(F)c(F)cc2s1 | active: 25.1 µM |
| CCOC(=O)c1sc(Nc2nc3c(OC)cccc3s2)nc1C | inconclusive: 6.31 µM [quencher, side channel, partial curve] |
| COc1ccccc1NC(=O)/C=C\c1ccco1 | inconclusive: 31.6 µM [quencher, side channel, single point] |
| NC(=S)N/N=C/c1ccc(-c2cc(Cl)ccc2Cl)o1 | inconclusive: 14.1 µM [quencher, side channel, partial curve] |
| CC(C)n1cc([C@@H]2C[C@H]3CN(Cc4cccc(Cl)c4)C(=O)[C@]34CCCN24)cn1 | inconclusive: 3.55 µM [fluorescent, side channel, partial curve] |
| Cc1cc(O)ccc1N=Cc1c(C(F)(F)F)[nH][nH]c1=O | inconclusive: 8.91 µM [fluorescent, side channel, partial curve] |
| O=[N+]([O-])c1cccc(S(=O)(=O)Nc2nc3ccccc3nc2Nc2cccc(S(=O)(=O)N3CCCCC3)c2)c1 | inconclusive: 6.31 µM [quencher, side channel, partial curve] |
| O=C(O)c1ccc(-c2ccc(/C=C3\NC(=O)N(Cc4ccc(Cl)cc4)C3=O)o2)cc1Cl | inconclusive: 7.94 µM [quencher, side channel, partial curve] |
| COc1ccc(-n2ncc3c(NCc4cccs4)ncnc32)cc1 | inconclusive: 11.2 µM [quencher, side channel, partial curve] |
| CCC(=O)Nc1ccc(NC(=O)c2ccc3ccccc3c2)cc1 | inconclusive: 35.5 µM [inhibitor, single point] |
| O=S(=O)(Nc1cccc(S(=O)(=O)N2CCCCCC2)c1)c1ccccc1 | inconclusive: 28.2 µM [quencher, side channel, single point] |

| Compound | Potency |
| --- | --- |
| CC(=O)NCCc1ccc(S(=O)(=O)Nc2ccc(NC(=O)c3ccc(F)cc3)cc2)cc1 | inconclusive: 39.8 µM [fluorescent, side channel, single point] |
| CNc1c(NS(=O)(=O)c2ccc(F)c(Cl)c2)c(=O)oc2ccccc12 | inconclusive: 39.8 µM [fluorescent, side channel, single point] |
| CCOc1nc(Nc2ccc(OC)c(Cl)c2)nc(OCC)n1 | inconclusive: 8.91 µM [quencher, side channel, full curve] |
| COc1ccc(-n2c(NC(=O)c3ccco3)c(C#N)c3nc4ccccc4nc32)cc1 | inconclusive: 6.31 µM [quencher, side channel, partial curve] |
| CCN(CC)C(=O)CSc1nc2cc3c(cc2c(=O)n1CCCC(=O)NCCc1ccc(OC)c(OC)c1)OCO3 | inconclusive: 14.1 µM [inhibitor, partial curve] |
| Brc1cccc(-c2n[nH]c(-c3ccccc3)n2)c1 | inconclusive: 39.8 µM [quencher, side channel, single point] |
| C/C=C/COC(=O)c1[nH]c2c(c1C)C(=O)CC(c1ccco1)C2 (stereo not given) | inconclusive: 35.5 µM [quencher, side channel, single point] |
| CC(C)c1ccc(-c2noc(C3CCCN(S(C)(=O)=O)C3)n2)cc1 (stereo not given) | inconclusive: 8.91 µM [inhibitor, single point] |
| CCOc1ccc(C(C(=O)NCCOC)N(CCOC)C(=O)CCC(=O)Nc2ccccn2)cc1 (stereo not given) | inconclusive: 6.31 µM [inhibitor, single point] |
| N#CCCn1nc(-c2ccc([N+](=O)[O-])cc2)cc1Nc1ccccc1NC(=O)C(F)(F)F | inconclusive: 12.6 µM [quencher, side channel, partial curve] |
| CCOC(=O)c1c(NC(=S)Nc2ccc(F)cc2)sc2c1CCC2 | inconclusive: 11.2 µM [quencher, side channel, partial curve] |
| CCOC(=S)NC(=O)c1sc2ccccc2c1Cl | inconclusive: 7.94 µM [quencher, side channel, partial curve] |
| O=C(Nc1nccs1)c1ccc(S(=O)(=O)NCC2CCCCC2)cc1 | inconclusive: 14.1 µM [quencher, side channel, partial curve] |
| COc1ccccc1NC(=O)c1sc2nc(-c3ccco3)ccc2c1N | inconclusive: 20 µM [quencher, side channel, partial curve] |
| COc1cccc(OC)c1OCCCN1CCC(Cc2ccccc2)CC1 | inconclusive: 11.2 µM [inhibitor, partial curve] |
| CCCCn1c(SCC(=O)Nc2cccc(OC)c2)nc2ccc(N3CCOCC3)cc2c1=O | inconclusive: 3.55 µM [inhibitor, single point] |
| CN1CCN(c2ccc(NC(=O)C(C)(c3ccccc3)c3ccccc3)cc2)CC1 | inconclusive: 31.6 µM [fluorescent, side channel, partial curve] |
| O=C(O)c1cc2ccccc2c2cc(Br)ccc12 | inconclusive: 20 µM [quencher, side channel, single point] |
| COc1ccc(O)c(CN2CCCC(N3CCc4ccccc4C3)C2)c1 (stereo not given) | inconclusive: 11.2 µM [inhibitor, partial curve] |
| O=C1COc2ccc(C(=O)CSc3nnc(Cc4cccs4)n3-c3ccc(Cl)cc3)cc2N1 | inconclusive: 8.91 µM [inhibitor, partial curve] |
| CC1CCCN(C(=O)c2ccc(COc3ccccc3Br)cc2)C1 (stereo not given) | inconclusive: 17.8 µM [fluorescent, side channel, partial curve] |
| CC1(C)OCC(CSC2=C(SCC3COC(C)(C)O3)C(=O)c3ncccc3C2=O)O1 (stereo not given) | inconclusive: 11.2 µM [quencher, side channel, partial curve] |
| Cc1cc(C)n2nc(-c3ccccc3)c(-c3ccccc3)c2n1 | inconclusive: 31.6 µM [fluorescent, side channel, partial curve] |
| O=C1C2Cc3c([nH]c4ccccc34)C(c3ccccc3)N2C(=O)C2Cc3c([nH]c4ccccc34)C(c3ccccc3)N12 (stereo not given) | inconclusive: 3.98 µM [inhibitor, partial curve] |
| CCCCCCCCC(=O)N1CCN(c2cc3c(cc2F)c(=O)c(C(=O)O)cn3CC)CC1 | inconclusive: 25.1 µM [inhibitor, partial curve] |
| COc1ccccc1CNC(=O)[C@@H](NC(=O)C1CCN(C(=O)[C@@H]2CCCN2)CC1)C(C)C | inactive |
| Cc1cnn(-c2cc(N/N=C/c3ccccc3Cl)ncn2)c1 | inactive |
